Experimental data taken from publication PMC12796746.
These are yes or no findings as the source states them, for the method shown. Binding seen in cells or lysates may run through a third protein. Some results given as binding are weak or reduced against the parent protein; the word gives no strength. Sequences can lack the tags named with a protein.

Key:
Assay in all cases: co-IP; MN-1 cells transiently cotransfected with TRPV4-FLAG (WT or mutant) and ARHGEF10-Myc; TRPV4 antagonist (500 nM) from 4 h after transfection; Pierce IP Lysis Buffer; tag antibody on Dynabeads Protein G, 1 h at 4 °C; immunoblot
[1] = target: TRPV4^WT-FLAG (in MN-1 cells) (human) (UniProt Q9HBA0)
TRPV4^R269C-FLAG (human) = TRPV4^R269C-FLAG (human) (UniProt Q9HBA0)
TRPV4^R315W-FLAG (human) = TRPV4^R315W-FLAG (human) (UniProt Q9HBA0)

binding [1]: binds | binding (TRPV4^R269C-FLAG (human)): binds | binding (TRPV4^R315W-FLAG (human)): binds
B1: ARHGEF10-Myc (protein, UniProt O15013 1-1369)
chain: MRPPGFLSRAPSLNRAERGIWSCSMDQREPLPPAPAENEMKYDTNNNEEEEGEQFDFDSGDEIPEADRQAPSAPETGGAGASEAPAPTGGEDGAGAETTPVAEPTKLVLPMKVNPYSVIDITPFQEDQPPTPVPSAEEENVGLHVPCGYLVPVPCGYAVPSNLPLLLPAYSSPVIICATSLDEEAETPEVTEDRQPNSLSSEEPPTSEDQVGREDSALARWAADPANTAWMENPEEAIYDDVPRENSDSEPDEMIYDDVENGDEGGNSSLEYGWSSSEFESYEEQSDSECKNGIPRSFLRSNHKKQLSHDLTRLKEHYEKKMRDLMASTVGVVEIQQLRQKHELKMQKLVKAAKDGTKDGLERTRAAVKRGRSFIRTKSLIAQDHRSSLEEEQNLFIDVDCKHPEAILTPMPEGLSQQQVVRRYILGSVVDSEKNYVDALKRILEQYEKPLSEMEPKVLSERKLKTVFYRVKEILQCHSLFQIALASRVSEWDSVEMIGDVFVASFSKSMVLDAYSEYVNNFSTAVAVLKKTCATKPAFLEFLKQEQEASPDRTTLYSLMMKPIQRFPQFILLLQDMLKNTSKGHPDRLPLQMALTELETLAEKLNERKRDADQRCEVKQIAKAINERYLNKLLSSGSRYLIRSDDMIETVYNDRGEIVKTKERRVFMLNDVLMCATVSSRPSHDSRVMSSQRYLLKWSVPLGHVDAIEYGSSAGTGEHSRHLAVHPPESLAVVANAKPNKVYMGPGQLYQDLQNLLHDLNVIGQITQLIGNLKGNYQNLNQSVAHDWTSGLQRLILKKEDEIRAADCCRIQLQLPGKQDKSGRPTFFTAVFNTFTPAIKESWVNSLQMAKLALEEENHMGWFCVEDDGNHIKKEKHPLLVGHMPVMVAKQQEFKIECAAYNPEPYLNNESQPDSFSTAHGFLWIGSCTHQMGQIAIVSFQNSTPKVIECFNVESRILCMLYVPVEEKRREPGAPPDPETPAVRASDVPTICVGTEEGSISIYKSSQGSKKVRLQHFFTPEKSTVMSLACTSQSLYAGLVNGAVASYARAPDGSWDSEPQKVIKLGVLPVRSLLMMEDTLWAASGGQVFIISVETHAVEGQLEAHQEEGMVISHMAVSGVGIWIAFTSGSTLRLFHTETLKHLQDINIATPVHNMLPGHQRLSVTSLLVCHGLLMVGTSLGVLVALPVPRLQGIPKVTGRGMVSYHAHNSPVKFIVLATALHEKDKDKSRDSLAPGPEPQDEDQKDALPSGGAGSSLSQGDPDAAIWLGDSLGSMTQKSDLSSSSGSLSLSHGSSSLEHRSEDSTIYDLLKDPVSLRSKARRAKKAKASSALVVCGGQGHRRVHRKARQPHQEELAPTVMVWQIPLLNI
